Data as given in PubChem BioAssay (Tox21).
Values joined by “and” are separate entries in the source; they are usually repeats but may differ in a detail not shown here. Equal entries are not always repeated. This list was built around the results that the source calls inconclusive (neither active nor inactive); the mix of calls is not that of the screen. For part of these data: Potencies beside an inconclusive call are fits to weak or partial responses and may not hold up. Active and inactive are the calls of the source. Unless noted, the call rests on the fitted dose curve; in most records, active means well fitted curve in the direction sought with a large enough effect in the repeat runs; inconclusive means weak or mixed curves; inactive means no such curve, though single readings can be large; an effect the other way counts as inactive or inconclusive.

How the values were obtained:
[1] = qHTS assay to identify small molecule HDAC inhibitors (AID 1259364); further: nearly all actives have a fitted effect of over 45% in size; on activity change, negative = inhibition: top concentration of the series differs between compounds; on the % scale 0 is the no-effect control and ±100 the full control effect
How it was run: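 Wild-type HCT-116 cells were plated overnight, exposed to compounds for 2 h at 37 °C, then given HDAC-Glo class I/II luminogenic reagent for 30 min at room temperature before luminescence was read.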

[2] = qHTS assay to identify small molecule antagonists of the sonic hedgehog signaling (Shh) pathway - cell viability counter screen (AID 1259367); further: nearly all actives have a fitted effect of over 55% in size
How it was run: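 NIH/3T3-derived Gli1-Luc reporter cells (2,000 per well) rested 4 hr at 37 C, then received DMSO compounds plus conditioned medium. After 23 hr of treatment, CellTiter-Fluor was added for 1 hr at 37C and fluorescence read.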

[3] = qHTS assay to identify small molecule antagonists of the sonic hedgehog signaling (Shh) pathway (AID 1259369; calls by dose curve; further: nearly all actives have a fitted effect of over 45% in size)
How it was run: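 NIH/3T3-derived 3T3Gli1-Luc cells with stably integrated Gli1-Luc reporter were preincubated 4hr at 37 C, then given compounds in DMSO plus Shh conditioned medium and incubated 24hr. Firefly luciferase luminescence read after 30min reagent at room temperature.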

[4] = qHTS assay to identify small molecule agonists of the estrogen receptor beta (ER-beta) signaling pathway - cell viability counter screen (AID 1259380); further: nearly all actives have a fitted effect of over 30% in size
How it was run: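 ER-beta-UAS-bla HEK293T cells in medium with 2% charcoal-stripped FBS were preincubated 6 hr at 37C, dosed with compound in DMSO for 16 hr, then after the bla read, CellTiter-Glo was added for 30 min at room temperature; luminescence recorded.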

[5] = target: Progesterone receptor (Homo sapiens) (UniProt P06401); test: qHTS assay to identify small molecule agonists of the progesterone receptor (PR) signaling pathway (AID 1346784; calls by dose curve; further: nearly all actives have a fitted effect of over 30% in size; on activation: on the % scale 0 is the no-effect control and ±100 the full control effect); conditions: PR-UAS-bla HEK293T, beta-lactamase FRET ratio, 16 h; activation: at 92.4 µM (top of the series) unless noted
How it was run: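 Cells (PR-UAS-bla HEK 293T, GripTite) were plated in assay medium containing 2% charcoal-stripped FBS and incubated 6 hr. Test compounds in DMSO were added for 16 hr at 37C. FRET substrate was then loaded for 2 hr at room temperature before fluorescence reading.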

[6] = qHTS assay to identify small molecule antagonists of the progesterone receptor (PR) signaling pathway - cell viability counter screen (AID 1346798); further: nearly all actives have a fitted effect of over 50% in size
How it was run: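 Counter screen for cytotoxicity: viability of PR-UAS-bla HEK293T cells was measured with CellTiter-Glo luminescence following 16 hr compound exposure in the presence of R5020.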

[7] = qHTS assay to identify small molecule agonists of the progesterone receptor (PR) signaling pathway - cell viability counter screen (AID 1346799; calls by dose curve; further: nearly all actives have a fitted effect of over 45% in size)
How it was run: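 Cells (PR-UAS-bla HEK293T) are plated at 3,000/well in 2% charcoal-stripped FBS medium, rested 6 hr, dosed and incubated 16 hr at 37C. CellTiter-Glo is then added and luminescence measured after 30 min at room temperature.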

[8] = qHTS assay to identify small molecule agonists of the sonic hedgehog signaling (Shh) pathway (AID 1259368; calls by dose curve; further: nearly all actives have a fitted effect of over 15% in size)
How it was run: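 NIH/3T3-derived 3T3Gli1-Luc cells carrying a stably integrated Gli1 response element–firefly luciferase reporter were plated, left 4 hr at 37 C, then given compounds in DMSO for 24 hr. Luminescence was read 30 min after adding luciferase reagent.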

[9] = target: Estrogen receptor beta (Homo sapiens) (UniProt Q92731); test: qHTS assay to identify small molecule antagonists of the estrogen receptor beta (ER-beta) signaling pathway (AID 1259378; active means well fitted inhibition curve with a large enough effect in the signal ratio in the repeat runs, not every such curve was filed as active; inconclusive means weak or mixed curves, or effect the other way; inactive means no such curve, though single readings can be large or run the other way; the % refers to the signal ratio; on activity, negative = inhibition: on the % scale 0 is the no-effect control and ±100 the full control effect); conditions: ER-beta-UAS-bla HEK293T, beta-lactamase FRET ratio, 16 h; activity, negative = inhibition: at 92.4 µM (top of the series) unless noted
How it was run: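 ER-beta-UAS-bla HEK293T (GripTite) cells in 2% charcoal-stripped FBS medium were preincubated 6 hr at 37C, dosed with compound, then stimulated with 1 nM E2 (final) for 16 hr; beta-lactamase reporter read by B/G FRET fluorescence after 2 hr substrate loading.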

[10] = target: Progesterone receptor (Homo sapiens) (UniProt P06401); test: qHTS assay to identify small molecule antagonists of the progesterone receptor (PR) signaling pathway (AID 1346795; active means well fitted inhibition curve with a large enough effect in the signal ratio in the repeat runs, not every such curve was filed as active; inconclusive means weak or mixed curves; the % refers to the signal ratio); conditions: PR-UAS-bla HEK293T, beta-lactamase FRET ratio, 16 h; activity change, negative = inhibition: at 92.4 µM (top of the series) unless noted
How it was run: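 Antagonist mode: compounds tested against 1 nM (final) promegestone stimulation in HEK293T cells expressing PR-UAS-bla reporter, 16 hr at 37C, 5% CO2; beta-lactamase activity detected via B/G FRET substrate after 2 hr at room temperature.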

[11] = qHTS assay to identify small molecule agonists of the estrogen receptor alpha (ER-alpha) signaling pathway in the presence of an antagonist - cell viability counter screen (AID 1259386);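 further: cells exposed to compounds for 22 h at 37 °C before the viability read; nearly all actives have a fitted effect of over 30% in size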
How it was run: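 VM7Luc4E2 cells (endogenous full-length ER-alpha, 4×ERE-luciferase) were held 5 days in phenol red-free medium with 10% charcoal-stripped FBS, plated, then given 10.0nM ICI-182,780 and compounds at 15 concentrations for 22hr at 37C; viability read by CellTiter-Fluor fluorescence.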

[12] = target: Estrogen receptor beta (Homo sapiens) (UniProt Q92731); test: qHTS assay to identify small molecule agonists of the estrogen receptor beta (ER-beta) signaling pathway (AID 1259377; active means well fitted activation curve with a large enough effect in the signal ratio in the repeat runs, not every such curve was filed as active; inconclusive means weak or mixed curves, or effect the other way; the % refers to the signal ratio; on activation: on the % scale 0 is the no-effect control and ±100 the full control effect); conditions: ER-beta-UAS-bla HEK293T, beta-lactamase FRET ratio, 16 h; activation: at 92.4 µM (top of the series) unless noted
How it was run: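 Agonist mode cell assay in GripTite HEK293T cells expressing an ER-beta fusion that drives beta-lactamase from an Upstream Activator Sequence; 16 hr compound exposure at 37C, then 2 h LiveBLAzer B/G FRET substrate at room temperature, fluorescence read-out.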

[13] = qHTS assay to identify small molecule agonists of the sonic hedgehog signaling (Shh) pathway - cell viability counter screen (AID 1259366); further: nearly all actives have a fitted effect of over 50% in size
How it was run: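 Cells are plated at 2,000 per well and left 4hr at 37C, 5% CO2 before compound addition. After 23hr of treatment, CellTiter-Fluor reagent is added for 1hr at 37C and fluorescence is measured.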

[14] = qHTS assay to identify small molecule agonists of the androgen receptor (AR) signaling pathway in the presence of an antagonist - cell viability counter screen (AID 1259379); further: nearly all actives have a fitted effect of over 25% in size
How it was run: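 MDA-kb2 human breast carcinoma cells (stable MMTV-luciferase, AR/GR responsive) were seeded 3,000 cells/well, pre-incubated 5 hr at 37C without CO2, then given 3.0uM nilutamide and compounds at 15 concentrations for 16 hr. Viability was read by CellTiter-Fluor fluorescence.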

[15] = qHTS assay to identify small molecule antagonists of the estrogen receptor beta (ER-beta) signaling pathway - cell viability counter screen (AID 1259382); further: nearly all actives have a fitted effect of over 55% in size
How it was run: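 ER-beta-UAS-bla HEK293T cells (2,000/well, 2% charcoal-stripped FBS) were pre-incubated 6 hr at 37C, then given compound plus 1nM final 17-beta-estradiol for 16 hr. Viability was read in the same wells by CellTiter-Glo luminescence after 30 min at room temperature.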

[16] = target: Estrogen receptor (Homo sapiens) (UniProt P03372); test: qHTS assay to identify small molecule agonists of the estrogen receptor alpha (ER-alpha) signaling pathway in the presence of an antagonist (AID 1259383; calls by dose curve; further: nearly all actives have a fitted effect of over 15% in size)
How it was run: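 VM7Luc4E2 cells (endogenous full-length ER-alpha, 4×ERE-luciferase) were precultured 5 days in phenol red-free medium with 10% charcoal-stripped FBS, given 10.0nM ICI-182,780 (final), then treated with compounds at 15 concentrations for 22hr at 37C; luminescence read with ONE-Glo.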

[17] = qHTS assay to identify small molecule antagonists of the TGF-beta/Smad signaling pathway - cell viability counter screen (AID 1346824); further: nearly all actives have a fitted effect of over 50% in size
How it was run: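 SBE-bla HEK 293T cells were plated overnight at 37 C, then given compounds in DMSO plus TGF-beta1 (added as 0.25 ng/mL solution) for 5 hr. After the bla read, CellTiter-Glo was added to the same wells and luminescence read after 30 min at room temperature.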
Potency means the concentration at half of the fitted maximal effect; tags describe the fitted curve by direction and shape or compound fluorescence and quenching.

Chain of UniProt P06401 (P06401 whole entry, looked up): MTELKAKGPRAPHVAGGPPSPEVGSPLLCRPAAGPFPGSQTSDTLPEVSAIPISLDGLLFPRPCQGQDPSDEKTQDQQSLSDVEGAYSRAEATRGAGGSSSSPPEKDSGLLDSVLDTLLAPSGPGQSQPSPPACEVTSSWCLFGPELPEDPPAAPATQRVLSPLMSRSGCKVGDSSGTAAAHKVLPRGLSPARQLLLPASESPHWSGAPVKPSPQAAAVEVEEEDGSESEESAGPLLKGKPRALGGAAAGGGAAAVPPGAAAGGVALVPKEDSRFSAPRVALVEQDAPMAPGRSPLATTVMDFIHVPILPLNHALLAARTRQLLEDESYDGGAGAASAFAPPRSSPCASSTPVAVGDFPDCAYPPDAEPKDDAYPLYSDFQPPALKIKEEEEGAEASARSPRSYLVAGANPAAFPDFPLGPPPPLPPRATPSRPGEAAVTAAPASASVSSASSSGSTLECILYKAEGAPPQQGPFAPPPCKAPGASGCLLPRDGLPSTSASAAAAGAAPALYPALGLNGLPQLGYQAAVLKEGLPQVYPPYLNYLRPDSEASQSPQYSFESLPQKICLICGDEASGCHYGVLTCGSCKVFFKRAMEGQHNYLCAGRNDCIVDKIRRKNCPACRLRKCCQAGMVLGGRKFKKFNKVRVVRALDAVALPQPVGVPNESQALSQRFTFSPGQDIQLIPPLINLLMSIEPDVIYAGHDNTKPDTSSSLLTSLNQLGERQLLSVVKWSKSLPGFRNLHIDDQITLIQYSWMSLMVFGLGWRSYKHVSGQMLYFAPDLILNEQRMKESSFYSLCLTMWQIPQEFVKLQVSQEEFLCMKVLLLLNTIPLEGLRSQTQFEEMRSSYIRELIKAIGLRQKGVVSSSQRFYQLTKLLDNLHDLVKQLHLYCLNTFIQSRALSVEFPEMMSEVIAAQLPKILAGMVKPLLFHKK
Chain of UniProt Q92731 (Q92731 whole entry, looked up, the tested form may be a part): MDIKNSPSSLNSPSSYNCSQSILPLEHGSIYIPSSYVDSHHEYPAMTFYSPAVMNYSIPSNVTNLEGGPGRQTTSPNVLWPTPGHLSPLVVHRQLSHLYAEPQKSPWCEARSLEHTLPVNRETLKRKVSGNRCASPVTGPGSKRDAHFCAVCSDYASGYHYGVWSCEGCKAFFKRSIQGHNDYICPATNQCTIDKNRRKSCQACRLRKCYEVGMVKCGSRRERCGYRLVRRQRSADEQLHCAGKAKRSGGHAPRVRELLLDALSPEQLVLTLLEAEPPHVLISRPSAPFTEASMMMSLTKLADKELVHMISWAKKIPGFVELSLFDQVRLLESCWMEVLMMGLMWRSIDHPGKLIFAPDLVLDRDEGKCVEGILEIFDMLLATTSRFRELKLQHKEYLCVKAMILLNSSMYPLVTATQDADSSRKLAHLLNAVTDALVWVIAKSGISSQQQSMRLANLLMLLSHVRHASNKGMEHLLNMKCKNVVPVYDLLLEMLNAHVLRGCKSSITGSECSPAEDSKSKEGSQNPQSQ
Chain of UniProt P03372 (P03372 whole entry, looked up): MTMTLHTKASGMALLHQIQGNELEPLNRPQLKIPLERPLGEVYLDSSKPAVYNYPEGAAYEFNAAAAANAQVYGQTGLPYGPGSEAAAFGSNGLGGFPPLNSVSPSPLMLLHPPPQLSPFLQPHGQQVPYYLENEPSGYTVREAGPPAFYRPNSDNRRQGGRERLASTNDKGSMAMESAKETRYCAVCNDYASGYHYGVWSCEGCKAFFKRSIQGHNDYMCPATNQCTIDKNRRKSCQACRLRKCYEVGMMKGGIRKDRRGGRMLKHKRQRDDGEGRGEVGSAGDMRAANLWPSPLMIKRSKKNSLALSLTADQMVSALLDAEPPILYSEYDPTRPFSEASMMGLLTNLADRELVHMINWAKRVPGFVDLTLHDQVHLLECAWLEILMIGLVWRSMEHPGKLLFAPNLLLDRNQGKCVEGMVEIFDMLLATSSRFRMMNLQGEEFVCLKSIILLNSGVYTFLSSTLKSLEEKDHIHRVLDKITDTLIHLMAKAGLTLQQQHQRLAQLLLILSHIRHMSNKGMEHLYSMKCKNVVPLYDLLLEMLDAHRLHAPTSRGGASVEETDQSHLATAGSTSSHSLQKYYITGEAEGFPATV

C[C@]12C=CC(=O)C=C1CC[C@@H]1[C@@H]2CC[C@@]2(C)[C@H]1CC[C@]2(C)O
active: Potency [5] 3.35 µM
inconclusive: Potency [3] 9.44 µM [inhibitor] | Potency [4] 33.5 µM [cytotoxic, single point] | Potency [6] 9.44 µM [rising, full curve] | Potency [7] 2.37 µM [rising, full curve]
inactive: Potency [1] | Potency [2]

Nc1ccccc1C(=O)OC/C=C/c1ccccc1
inconclusive: Potency [1] 27.4 µM [inhibitor, partial curve] | Potency [8] 15.4 µM [activator, partial curve] | activation [5] -1.75%
active: Potency [9] 48.7 µM | Potency [4] 21.7 µM | Potency [10] 27.4 µM

c1ccc2c(c1)OCC(C1=NCCN1)O2 (stereo unspecified)
active: Potency [9] 11.9 µM | Potency [10] 21.1 µM
inconclusive: Potency [1] 18.8 µM [inhibitor, partial curve, poor fit] | Potency [4] 13.3 µM [cytotoxic, single point]
inactive: Potency [5] | Potency [6]

CN(C)c1ccc(N(C)C)cc1
inconclusive: Potency [1] 48.7 µM [inhibitor, partial curve] | Potency [9] 68.8 µM [inhibitor, single point] | Potency [4] 21.8 µM [cytotoxic, partial curve] | Potency [11] 34.5 µM [cytotoxic, partial curve] | Potency [7] 68.8 µM [rising, single point]

O=[N+]([O-])c1ccc2ccc3cccc4ccc1c2c34
inactive: Potency [7]
active: Potency [4] 30.6 µM | Potency [11] 38.5 µM
inconclusive: Potency [1] 61.1 µM [inhibitor, partial curve, poor fit] | Potency [12] 48.5 µM [rising, partial curve] | Potency [9] 27.3 µM [rising, full curve] | Potency [10] 21.7 µM [rising, full curve]

CC(C)N(C(=O)CCl)c1ccccc1
inconclusive: Potency [1] 54.5 µM [inhibitor, partial curve, poor fit] | Potency [12] 61.1 µM [rising, single point] | Potency [14] 68.6 µM [cytotoxic, single point] | Potency [15] 15.4 µM [cytotoxic, full curve] and 27.3 µM [cytotoxic, partial curve] | Potency [11] 30.6 µM [cytotoxic, partial curve] | Potency [7] 1.37 µM [cytotoxic, single point]
active: Potency [13] 68.6 µM and 9.69 µM | Potency [4] 54.5 µM and 27.3 µM | Potency [6] 61.1 µM and 48.6 µM

c1ccc(N=NNc2ccccc2)cc1
active: Potency [1] 15.9 µM and 24.3 µM | Potency [11] 28.3 µM and 27.3 µM | Potency [10] 56.4 µM and 48.6 µM
inconclusive: Potency [2] 25.2 µM [cytotoxic] | Potency [8] 15.9 µM [activator, partial curve] | Potency [3] 79.6 µM [inhibitor, single point] and 61.1 µM [inhibitor, partial curve, poor fit] | Potency [12] 31.7 µM [fluorescent, partial curve] | activation [12] -0.299% | Potency [9] 28.3 µM [inhibitor, partial curve] | activity, negative = inhibition [9] -39.6% | Potency [14] 39.9 µM [cytotoxic, partial curve] and 30.6 µM [cytotoxic, partial curve] | Potency [4] 8.93 µM [cytotoxic, full curve] and 13.7 µM [cytotoxic, full curve] | Potency [16] 24.3 µM [activator, partial curve, poor fit] | activation [5] -5.36% | Potency [6] 15.9 µM [cytotoxic, partial curve, poor fit] | Potency [17] 19.5 µM [cytotoxic, partial curve, poor fit]

O=C(Cl)c1ccccc1
inactive: Potency [1]

Oc1c(Cl)c(Cl)cc(Cl)c1Cl
inconclusive: Potency [1] 66.7 µM [inhibitor, partial curve, poor fit] | Potency [3] 29.8 µM [inhibitor, full curve] | Potency [12] 5.94 µM [rising, partial curve] | Potency [9] 5.3 µM [rising, full curve] | Potency [14] 74.8 µM [cytotoxic, single point] | Potency [4] 4.72 µM [cytotoxic, full curve] | Potency [5] 33.4 µM | activity change, negative = inhibition [10] -29.2% | Potency [7] 33.4 µM [rising, full curve, poor fit]
